# From PubChem BioAssay AID686978 (National Center for Advancing Translational Sciences (NCATS), 2013)
# Screen size: about 420,000 compounds; about 64,000 (15%) were called active. This list was built around the results that the source calls inconclusive (neither active nor inactive); the mix of calls is not that of the screen. Calls follow the shape of the dose curve; as a rule, active = well fitted inhibition curve with a large enough effect; inconclusive = small, poorly fitted or top-dose-only effect; inactive = flat fitted curve, though single readings scatter. Potencies of inconclusive entries are left out as doubtful fits.
# Assay: qHTS for Inhibitors of human tyrosyl-DNA phosphodiesterase 1 (TDP1): qHTS in cells in absence of CPT; also: nearly all actives have a fitted effect of over 55% in size
# Settings: DT40 Tdp1-/- hTDP1 cells, no CPT, ATP luminescence, 48 h; activity change, negative = growth inhibition: at 46.2 µM (top of the series) unless noted
# Method in brief: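 Growth kinetics read by CellTiter-Glo luminescence after ≥48 hr at 37 °C. Cells: DT40 Tdp1-/- stably carrying human TDP1, 400 per well, compound exposure in the absence of CPT (DMSO vehicle).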
# % is scaled to controls: 0 for no effect and ±100 for the full control effect; potency is read from the fitted curve at half-maximal effect; tags tell the direction and shape of the fitted curve.
Structure (SMILES),Potency,"activity change, negative = growth inhibition"
Cc1ccccc1CNC(=O)c1ccccc1C,"inconclusive [inhibitor, full curve, poor fit]",
C(=N\c1nc2ccccc2n1CCN1CCOCC1)/c1cccs1,inactive,
O=C1CCNc2cc3ccccc3cc21,"inconclusive [inhibitor, partial curve, poor fit]",
CN1CCN(S(=O)(=O)c2ccc(NCc3ccc4c(c3)OCO4)nc2)CC1,inactive,
CCOC(=O)c1ccc(CN(Cc2ccc(F)cc2)S(=O)(=O)c2ccc(F)c(C(=O)Nc3cc(Cl)ccc3OC)c2)cc1,inactive,
COc1ccc(CN(CC(=O)NC2CCCC2)C(=O)CCC(=O)Nc2cc(C)on2)cc1,inactive,
CCOc1ccc(C(=O)Nc2sc3c(c2C(=O)OC)CC(C)(C)NC3(C)C)cc1,active: 16.4 µM,
CCc1ccc2c(c1)NC(=O)C2(C)Cc1ccc(Cl)s1 (centres undefined),"inconclusive [inhibitor, single point]",
CC1CCC(NC(=O)CNC(=O)Cc2cccc3ccccc23)CC1 (centres undefined),"inconclusive [inhibitor, single point]",
CCN(CC)c1ccc(NC(=O)COCc2cc(-c3ccc4c(c3)OCO4)on2)c(C)c1,"inconclusive [inhibitor, single point]",
CCCCCCCCC(c1nc2ccccc2[nH]1)N1CCN=C1c1cc2ccccc2[nH]1 (centres undefined),active: 6.51 µM,
COc1ccc(/C(C)=N/NC(=O)CCC(=O)Nc2ccc(Cl)cc2Cl)c(OC)c1,"inconclusive [inhibitor, single point]",
CC(N=Cc1cccc(O)c1O)c1ccccc1 (centres undefined),"inconclusive [inhibitor, single point]",
Cc1ccc(-c2csc(N/N=C/C=C/c3ccccc3)n2)cc1,"inconclusive [inhibitor, single point]",
COc1ccc(S(=O)(=O)N[C@@H](Cc2ccc(Cl)cc2)C(=O)N2CC[C@@]3(O)CCCC[C@H]3C2)cc1,"inconclusive [inhibitor, single point]",
CC(C)(C)NC(=O)NC(=O)CN1C(=O)NC(C)(c2ccccc2)C1=O (centres undefined),"inconclusive [inhibitor, single point]",
COC(=O)c1ccc(CSc2nc3ccc(Cl)cc3[nH]2)o1,"inconclusive [inhibitor, partial curve]",
Nc1ccc(N=Nc2ccccc2Cl)c(N)n1,"inconclusive [inhibitor, partial curve, poor fit]",
CN(C)C(=O)CSc1cccc2cccnc12,active: 4.61 µM,
CCOC(=O)CCc1nn(C)c(=O)c2ccccc12,,inconclusive: -33.1% [inhibitor]
CCOC(=O)Cc1csc(SCC(=O)Nc2cccc(C#N)c2)n1,inactive,
COc1nc(/C=C/N(C)C)c([N+](=O)[O-])c(OC)n1,"inconclusive [inhibitor, single point]",
CC12CCC(C(=O)Nc3cc(Cl)ccc3Cl)(C/C1=N\O)C2(C)C (centres undefined),"inconclusive [inhibitor, single point]",
N#Cc1ccc(CSc2nnc(-c3cccs3)n2-c2ccccc2)cc1,inactive,
Cc1ccccc1C(=O)Nc1nnc(CC(=O)N/N=C/c2cn(Cc3ccccc3)c3ccccc23)s1,"inconclusive [inhibitor, single point]",

Structure (SMILES),Potency,"activity change, negative = growth inhibition"
C=CCn1cc(C(=O)N2CCc3ccccc3C2)c(=O)c2cc(S(=O)(=O)N(CC)CC)ccc21,active: 18.4 µM,
FC(F)(Cl)c1nnc2ccc(Cl)nn12,"inconclusive [inhibitor, single point]",
CC(C)Oc1ccc(CN2CCC2(C)C(=O)Nc2ccc(Cl)c(Cl)c2)cc1 (centres undefined),"inconclusive [inhibitor, single point]",
Cn1c(N)c(C(=O)COC(=O)CCc2c[nH]c3ccccc23)c(=O)n(C)c1=O,"inconclusive [inhibitor, single point]",
Cc1cc(NC(=O)c2ccc3c(c2)OCCO3)ccc1NC(=O)c1ccco1,"inconclusive [inhibitor, partial curve]",
COc1ccc(CNC(=O)c2cc3c(=O)n(Cc4ccco4)ccc3nc2C)c(OC)c1,"inconclusive [inhibitor, single point]",
C[C@H]1COC(=O)[C@H](NC(=O)OCC2c3ccccc3-c3ccccc32)C/C=C\C[C@H](CC(=O)N(CCO)Cc2ccccc2)C(=O)N1,active: 9.2 µM,
Cc1onc(-c2ccccc2Cl)c1C(=O)N1CCN(c2ccc(F)cc2)CC1,"inconclusive [inhibitor, single point]",
Cc1ccccc1CS(=O)(=O)c1ccc(C(=O)N2CCOCC2)cc1[N+](=O)[O-],active: 11.6 µM,
O=C(Nc1nc(-c2ccc3c(c2)OCO3)cs1)c1ccncc1,active: 13 µM,
COC(=O)c1sc2nc(-c3ccccc3)nc(N3CCN(C)CC3)c2c1C,active: 25.9 µM,
NC(C(=O)O)c1cccc(O)c1 (centres undefined),inactive,
O=C(NCc1cccc(Br)c1)c1cc(-c2ccccc2)nn1CC1CC(c2cccnc2)=NO1 (centres undefined),"inconclusive [inhibitor, single point]",
O=C(NCCc1c[nH]c2ccccc12)C1CCCN(S(=O)(=O)c2ccccc2)C1 (centres undefined),"inconclusive [inhibitor, single point]",
O=C(COC(=O)C1=COCCO1)Nc1c(F)cccc1F,inactive,
Cn1cc(-c2cc3n(n2)CCC(=O)N3CCCC(=O)Nc2ccc(Cl)cc2)c2ccccc21,"inconclusive [inhibitor, single point]",
CC(=O)N(C)c1ccc(N=C2C(=O)Nc3ccccc32)cc1,inactive,
CCCn1nnc(NC(=O)c2ccc3ccccc3c2)n1,inactive,
COc1ccc(-c2c(-c3ccccc3)n(C)c3ccccc23)cc1,inactive,
Cc1cc(S(=O)(=O)Nc2ccc3ccccc3c2)c(C)s1,active: 11.2 µM,
COc1cc(SC)ccc1C(=O)N1CCN(Cc2ccc3c(c2)OCO3)CC1,"inconclusive [inhibitor, single point]",
Cc1ccc(/C(N)=N/OC(=O)COc2cccc3ccccc23)cc1,"inconclusive [inhibitor, single point]",
CC1=NNC(=O)/C1=C\c1cn(-c2ccccc2)nc1-c1ccc(Cl)cc1,active: 5.17 µM,
O=C(c1ccccc1)N1CCN(CC(O)COc2cccc3ccccc23)CC1 (centres undefined),"inconclusive [inhibitor, single point]",
COCCn1c(N)c(N(Cc2ccccc2)C(=O)COc2ccccc2F)c(=O)[nH]c1=O,inactive,

Structure (SMILES),Potency,"activity change, negative = growth inhibition"
Cc1cccn2c(=O)c3cc(C(=O)NCc4ccc(F)cc4)c(=N)n(CCCN4CCOCC4)c3nc12,inactive,
CC1=NCCN1S(=O)(=O)c1cc([N+](=O)[O-])ccc1Cl,inactive,
COc1ccc(Oc2ncc3nc(-c4ccccc4)c(=O)n(CCC#N)c3n2)cc1,"inconclusive [inhibitor, single point]",
CCn1c(SCC(=O)N/N=C/c2ccncc2)nc2ccccc21,"inconclusive [inhibitor, single point]",
CCc1ccccc1Nc1cc(C(=O)NCc2ccccn2)c2ccccc2n1,"inconclusive [inhibitor, single point]",
Cc1ccc(CN2CN(S(=O)(=O)c3cccs3)c3nc4ccccc4nc32)cc1,active: 20.6 µM,
COc1ccc(CNC(=O)CCC2N=C3c4ccccc4N=C(SCC(=O)NCCc4ccc(OC)c(OC)c4)N3C2=O)cc1 (centres undefined),"inconclusive [inhibitor, partial curve]",
CCN1CCN(CC(=O)Nc2c(OC)cccc2OC)CC1,inactive,
CC(C)(C)NC(=O)c1cc(F)c(F)cc1Cl,inactive,
O=C(Nc1cc(Br)ccc1O)c1cc(-c2cccs2)on1,inactive,
CC(OC(=O)CNS(=O)(=O)c1ccc(C#N)cc1)C(=O)Nc1cccc(C#N)c1 (centres undefined),inactive,
O=C(O)C1CN(c2ncccc2[N+](=O)[O-])C1,inactive,
N#C/C(=C\c1ccco1)Sc1nc2ccccc2s1,inactive,
CN(Cc1nc2ccccc2c(=O)[nH]1)Cc1nc2ccsc2c(=O)[nH]1,active: 0.92 µM,
Cn1c(SCc2ccccc2)nnc1C1CCCNC1 (centres undefined),inactive,
COc1ccccc1NC(=O)NC1CCS(=O)(=O)C1 (centres undefined),inactive,
COc1ccc(C(=O)Oc2c(Sc3ccccc3)c(C)nn2-c2ccccc2)c(OC)c1,"inconclusive [inhibitor, single point]",
COc1ccc(-c2csc(NC(=S)NC(=O)c3ccc(S(=O)(=O)N(C)C)cc3)n2)cc1OC,"inconclusive [inhibitor, full curve]",
NC(=O)c1nsc(C(=O)N(CC(=O)NCc2ccc(F)cc2)Cc2ccco2)c1N,"inconclusive [inhibitor, single point]",
O=C(Nc1nnc(C2=COCCO2)o1)c1ccc(Cl)cc1,"inconclusive [inhibitor, single point]",
COc1ccc(-c2sc3ccc(OC)cc3c2C#CCCO)cc1,"inconclusive [inhibitor, single point]",
O=C(O)CCCCCNc1ncnc2ccc(Br)cc12,"inconclusive [inhibitor, partial curve]",
Cc1ccc(NC(=O)c2ccc(Cn3cc(Br)cn3)o2)cc1,active: 20.6 µM,
COc1ccccc1CNC(=O)C(=O)NCC(c1ccco1)S(=O)(=O)c1ccc(F)cc1 (centres undefined),"inconclusive [inhibitor, single point]",
